# In the RNAGym collection of RNA variant scans (doi:10.1093/nar/gkz1192):
# The source gives no read counts; variants with many changes may rest on few reads.
# B1: CPEB3 Ribozyme (parent)
# chain: UAACAGGGGGCCACAGCAGAAGCGUUCACGUCGCAGCCCCUGUCAGAUUCUGGUGAAUCUGCGAAUUCUGCUGUAUAUCUC
# Variants of: B1
# Test: self-cleavage, relative activity (ratio to wild type); higher = more cleavage; in vitro, sequencing
# How it was run: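 After error-prone PCR and barcoding, CPEB3 ribozyme mutant libraries were transcribed with T7 RNA polymerase at 37°C for 5 hours, then given 15 min with DNase I before an EDTA stop, and they cleaved during both steps. Reverse transcription with template switching preceded Illumina sequencing. Relative activity divides a variant's cleaved/total read fraction by the unmutated ribozyme's. At least 5 reads were required per variant, and three batches were averaged.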
row,Variant,self-cleavage
1,A2U A57G U66C U74C,0.19
2,A2U A3U U41C,1.07
3,A3C A28C U31G U78C,0.26
4,A2G U26C A45U,0.37
5,A2U A15G A64G,0.58
6,A2U A21G G73C,0.9
7,A2G G30A U48G U78C,0.31
8,A2U A3U U31C,1.09
9,A2G U58C U67C,0.17
10,A2G U31C U60A U80A,0.12
11,A2U A5G U26C U51C U58C,0.29
12,A2U A5U U72C,0.93
13,A2U C32A A56G U60C A64G U78C,0.06
14,A2G U26C U69A,0.24
15,A2U U54A A77U,1.06
16,A2G G19A G42A,0.05
17,A2G G24A A45C A56U,0.53
18,A2G U26C C32U U72C,0.25
19,A2U G30A U41A U66C,0.22
20,A2U A13C A56G U74A,0.96
21,A3C A35G U43A U54C G73C U80C,1.28
22,A2U A15G A20G U41A A64G,0.46
23,A3C A28G G33U A45G U54A,0.36
24,A2G U43A A57U A77G,0.71

row,Variant,self-cleavage
1,A2U U25C U60C,0.13
2,A2G U25C U41A U51A,0.34
3,A3C G6C U43C U51A U54A,0.14
4,A2G G63U U66C,0.36
5,A2G U26C A56G,0.21
6,A2U C12U A21G U41C A64G U72C,0.36
7,A2G U25C C32A G36C U58C U80G,0.08
8,A3C G7U A13G A18G A28G U54C U80C,0.17
9,A2G U25G C34G C44U U60A A64G,0.21
10,A2G U72A U78C,0.3
11,A2U C29A A35U G52A A56G A65C U66C,0.06
12,A2U A56U C79A,0.77
13,A2U G19U G33A A35G U72G A77U,0.05
14,A2U U31A U49C,0.2
15,A3C A18U U41C,0.81
16,A2G U51A U60C,0.14
17,A2U G33C U41C A57G U78C,0.16
18,A2G U51A A65G,0.23
19,A2U A3G A13U,0.96
20,A2G G10U U41G A56G,0.17
21,A2U A45G U78C,0.49
22,A2U C37U C40G C79A,0.06
23,A2U G6U A35U U48C U60C,0.33
24,A2U A13G U67C U69A,0.15

row,Variant,self-cleavage
1,A2U G6A U41A A56G A75U,0.15
2,A3C C11A C27U U54C U58C U67A,0.19
3,A2G U25C A28G U41A G53U,0.33
4,A2U U43A A56U U72A,0.22
5,A2G U49A U66C U80G,0.19
6,A2U C40G U41C U72C A75G,0.09
7,A2U G7U A28C U31C A47G C62U U66C,0.09
8,A2G U25C U31C A45U U49A U69G,0.06
9,A3C C4G A21C U78C,0.14
10,A2U G19U A28G C32A A47G U74C,0.06
11,A2U A13G C27G U51C,0.07
12,A2G U25C A35U U41C A45G,0.12
13,A2U U54G U69A U72C,0.47
14,A2U U41A A45G U49C,0.09
15,A3C C23U A35U U48C U54C,0.05
16,A2U G9A A15U A35G U41C,1.05
17,A3C A15G A45G U69A,0.5
18,A2G U43C A56G U58A U67C G70U A75G,0.04
19,A2G U54C A75G,0.81
20,A2G U54C A75U,0.75
21,A2U A3G A18G A20G A57G,0.6
22,A3C A5U U51G,0.5
23,A2U A20G A28G A35G U41A U54C A64G,0.29
24,A2G U25A A35G U72A,0.12

row,Variant,self-cleavage
1,A2U U26C A35U G46A U67C U74C U76C,0.05
2,A2G G10U G52U,0.35
3,A2G U31A U66C,0.28
4,A2U U49A A56G,0.51
5,A2U A13G U76C,0.44
6,A2G U26A U41C U43C A45U,0.26
7,A3C A15G A47U U48C A57G U72G,0.25
8,A2U U60C U74C,0.55
9,A2U U60C U74A,0.96
10,A3C C17U C39A,0.06
11,A2U A18U U26A A28G,0.21
12,A2U A5G U31A U41C,0.39
13,A2U A15U A35U A65U U66A U67A A75U,0.12
14,A2U C11G C23G G30A G52A A64G,0.05
15,A2U A18G U26A A57U C62U,0.1
16,A2U C14U A15U G52U U69C,0.34
17,A2U C34G U49C U72C,0.06
18,A2U A5U C12U C38G U69A U78G,0.06
19,A3C A20G U41A A47G A77G,0.43
20,A3C A13U A64U G70A C71U A75G,0.14
21,A3C C23G A35G U67C A77G U80C,0.07
22,A2G G42U C62U U72C,0.15
23,A2U C11U A15G U41A U69C,0.06
24,A2U C27A A65U U69C A75U,0.12

row,Variant,self-cleavage
1,A3C C14U U60C,0.92
2,A2U U51C U54A,1.11
3,A2G U41C A64U,0.42
4,A2G G10A A15G A45U A64G U66C U78C,0.16
5,A2U A15G U31C U49A G53A,0.16
6,A2U A3G C11G A28U A47G C62U,0.06
7,A2G U54A A57G,0.42
8,A2G U26A A64G U80A,0.55
9,A3C A13G U25A,0.47
10,A2G U41C U54G,0.54
11,A2U A35U U49C A64C,0.19
12,A3C C50A U74C,1.11
13,A2U C32U A35C U54C,0.11
14,A2U U25C U66C U67C,0.28
15,A2G U69C A75G,0.16
16,A2U C17U A20U U25C A28U U78C,0.19
17,A2U A13U A18G U25G U43C G46A U58C,0.04
18,A2G G19U A45G A64G,0.13
19,A2G U31C U51A,0.63
20,A2U G8A U41G G70A,0.07
21,A2U G7U A35G,0.38
22,A2U C12U A18U,0.47
23,A2U A3G A45C A56G U69C,0.18
24,A2U A13G G30U C37U A64G,0.14

row,Variant,self-cleavage
1,A2U A35G U49C,0.99
2,A2U A28G U72A,0.13
3,A2G U41A U80C,0.11
4,A2G U25C A56U A64G A75G,0.06
5,A2U A3G A13G A28G A56G,0.08
6,A2G G16A A28G C40G U66A U69A,0.12
7,A2G G46U U66C,0.21
8,A2U U43A U72C,1.08
9,A2G G10A U48C U51G,0.1
10,A2G U48C U69C U72A,0.07
11,A2G G10C A20U U48C A65U,0.12
12,A2U U26C U41C A56G,0.26
13,A3C A5G U49C U74A,0.59
14,A2G U25C U49C U54C A77G,0.12
15,A2G U26C A35U A47U,0.24
16,A2G U67C A75G U80C,0.16
17,A3C A20G U66C U76G,0.42
18,A2U U25C U43A,0.32
19,A2G G19U U49C U78C,0.14
20,A2G U60A U72G,0.14
21,A2U A28U U48C U72C,0.4
22,A2U A20G U66C U67C,0.25
23,A2U A20U A28G,0.18
24,A2G U26A G42U C62U,0.23

row,Variant,self-cleavage
1,A2G U41A C62U A77U,0.12
2,A2G U25C A57G,0.07
3,A3C A28G U51A,0.78
4,A3C A15U U25C U74A,0.54
5,A3C G7U A21U C50U U60C A64U,0.19
6,A2U U26A A35U U41C C59A U60C,0.06
7,A3C G8A G9U U25C U41C U67C U74C,0.05
8,A2G U26C A28U A35G U69A U72A,0.13
9,A2U A18G A28U C37A,0.32
10,A3C A28G A64G U67C C68A,0.08
11,A3C A15G U43A C59A U67C U80A,0.13
12,A2U U51A U54C A64G U76C,0.97
13,A2G U31C U43C A64U,0.08
14,A2U A5G A21G U41C U72C,0.38
15,A2U C39G U43C U60C,0.28
16,A2U U26A A28U A35U G46A A65G,0.12
17,A2U A3G A15G C23G U31C,0.36
18,A3C A5C A15U A21G U51A,0.86
19,A3C G9C A28U A64U U67C U72A,0.08
20,A2G G36A U41A G61C A65G U72C,0.17
21,A2G U26C U60A G63A U74A,0.06
22,A2U A18G A21G U41C A45G C50G,0.04
23,A2G U58A A65G,0.22
